Hit rate of the full screen: of about 310,000 compounds, about 2,200 (0.71%) showed an effect of 50% or more. Effects have a minus sign here. The list shows a part of the results.
Target: human ether-à-go-go-related gene (hERG) potassium channel (human, UniProt Q12809)
Test: primary screen, population patch clamp on CHO cells stably expressing hERG

human ether-à-go-go-related gene (hERG) potassium channel, sequence (Q12809 whole entry, looked up): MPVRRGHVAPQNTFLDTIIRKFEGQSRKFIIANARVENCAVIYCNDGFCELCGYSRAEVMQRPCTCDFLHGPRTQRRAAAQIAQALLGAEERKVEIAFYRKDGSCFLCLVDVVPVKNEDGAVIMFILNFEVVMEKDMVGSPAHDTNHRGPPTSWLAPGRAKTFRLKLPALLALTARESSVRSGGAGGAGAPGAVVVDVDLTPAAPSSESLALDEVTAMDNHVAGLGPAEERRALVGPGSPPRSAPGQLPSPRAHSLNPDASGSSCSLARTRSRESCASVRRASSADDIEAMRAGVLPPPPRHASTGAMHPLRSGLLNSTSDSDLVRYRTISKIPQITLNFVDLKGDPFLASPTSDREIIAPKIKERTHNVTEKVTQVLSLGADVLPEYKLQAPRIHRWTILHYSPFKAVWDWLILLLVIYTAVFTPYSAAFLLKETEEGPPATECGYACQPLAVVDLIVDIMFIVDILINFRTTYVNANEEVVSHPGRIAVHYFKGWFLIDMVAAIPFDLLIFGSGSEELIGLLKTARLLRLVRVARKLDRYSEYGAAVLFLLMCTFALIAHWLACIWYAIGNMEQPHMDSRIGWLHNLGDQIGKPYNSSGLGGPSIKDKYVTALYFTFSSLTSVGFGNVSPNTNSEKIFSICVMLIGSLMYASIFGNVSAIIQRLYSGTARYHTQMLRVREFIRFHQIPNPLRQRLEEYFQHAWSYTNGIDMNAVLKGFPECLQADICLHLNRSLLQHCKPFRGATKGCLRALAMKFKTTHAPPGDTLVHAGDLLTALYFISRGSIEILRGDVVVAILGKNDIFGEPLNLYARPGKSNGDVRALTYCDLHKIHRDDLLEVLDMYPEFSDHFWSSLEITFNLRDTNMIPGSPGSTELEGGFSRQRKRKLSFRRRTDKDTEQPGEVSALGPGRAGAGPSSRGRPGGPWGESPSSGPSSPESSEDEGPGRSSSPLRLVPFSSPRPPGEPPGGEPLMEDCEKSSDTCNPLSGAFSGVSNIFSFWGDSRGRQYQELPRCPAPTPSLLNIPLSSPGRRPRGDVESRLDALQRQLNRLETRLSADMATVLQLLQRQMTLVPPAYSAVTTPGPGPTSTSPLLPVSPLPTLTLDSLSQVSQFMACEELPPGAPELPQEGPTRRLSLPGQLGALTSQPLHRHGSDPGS

SMILES | hERG current change (%, negative = inhibition) at 1uM [%]
Cc1c(Cc2ccccc2)c(=O)oc2cc(OCC(=O)N3CCC(C(=O)O)CC3)ccc12 | 6.71
COc1ccccc1N1CCN(C(=O)Nc2ccc([N+](=O)[O-])cc2)CC1 | -10.6
COc1ccccc1NC(=O)CNC(c1ccccc1)c1ccccc1 | 9.55
COC(=O)C(O)(c1c(C)[nH]n(-c2ccccc2)c1=O)C(F)(F)F (centres unmarked) | 14.2
CC1(c2nnc(-c3ccc(Cl)cc3)o2)CC(c2ccc([N+](=O)[O-])cc2)=NO1 (centres unmarked) | 1.73
NC(=S)N/N=C/c1ccc2ccccc2c1 | 2.29
CCOCCOC(=O)c1[nH]c2c(c1C)C(=O)CC(c1ccccc1)C2 (centres unmarked) | 4.31
CC(=O)OCC1=C(C(=O)O)N2C(=O)C(NC(=O)c3ccc(COc4ccc(Cl)cc4)o3)C2SC1 (centres unmarked) | 3.91
NC(N)=NS(=O)(=O)c1ccc(NC(=S)NC(=O)Cc2ccc(Cl)cc2)cc1 | 14.1
CCOC(=O)CC1=C(C(=O)OCC)C2(C(=O)N1)C(C(=O)OC)=C(N)Oc1ccccc12 (centres unmarked) | -4.49
O=C(OCC(=O)N1CCCC1)c1ccc(S(=O)(=O)N2CCOCC2)cc1 | 12.6
Nc1ncnc(Nc2cccc(C(F)(F)F)c2)n1 | 3.31
Cc1cc(C(F)(F)F)nc(-n2cc(-c3cccc(N)c3)nn2)n1 | 4.58
CCCC(=O)Nc1nn(CC)c2nc3ccc(C)cc3cc12 | 11.2
O=C(CSc1nc2ccccc2o1)NCC1CCCO1 (centres unmarked) | -1.64
O=C(COc1ccccc1[N+](=O)[O-])N(Cc1cccc(Br)c1)C1CCS(=O)(=O)C1 (centres unmarked) | -9.07
Cn1c(=O)oc2cc(S(=O)(=O)N3CCN(Cc4ccc5c(c4)OCO5)CC3)ccc21 | -17.1
COc1cccc(-c2cc(C(=O)N3CCc4ccccc4C3)[nH]n2)c1 | 17.1
COc1ccc(S(=O)(=O)N(C)CC(=O)N2CCCC2)cc1OC | 17.6

SMILES | hERG current change (%, negative = inhibition) at 1uM [%]
COC(=O)C1=C(N)Oc2cc(C)[nH]c(=O)c2C1c1ccncc1 (centres unmarked) | 12.7
COc1cc(C(=O)Nc2c(C(=O)N3CCOCC3)oc3ccccc23)cc(OC)c1OC | -0.979
CC(C)OC(=O)CN1C(=O)S/C(=C/c2ccc(N3CCCCC3)o2)C1=O | 0.015
COc1cc2ccccc2cc1C(=O)Nc1nccs1 | 11.8
CCOC(=O)C1=C(c2ccccc2)N=C2SCC(=O)N2C1c1ccc(OC)c(OC)c1 (centres unmarked) | 6.2
CCN(c1ccccc1)S(=O)(=O)c1nnc(NC(=O)C(C)(C)C)s1 | 14.3
O=C(CCCN1C(=O)/C(=C\c2cccs2)SC1=S)Nc1cc([N+](=O)[O-])ccc1O | 15.1
Cc1ccc2nc(SCC(=O)NCc3ccco3)[nH]c2c1 | -4.79
O=C(CN1C(=O)c2cccnc2Oc2ccc(Cl)cc21)N1CCOCC1 | 10.6
O=c1cc(N2CCOCC2)[nH]c(=O)n1-c1ccc(Br)cc1 | 17.2
Cc1cccc(N2CCN(C(=O)c3ccc4c(c3)NC(=O)C(CSCc3cccc(F)c3)N4)CC2)c1C (centres unmarked) | 12.8
NS(=O)(=O)c1ccc(-n2cccc2C=O)cc1 | 2.72
Brc1ccc2[nH]cc(/C=N/N3CCCCC3)c2c1 | -2.56
CCOC(=O)N1CCN(c2ncnc3c2[nH]c2ccc(OC)cc23)CC1 | -8.87
C/C(=N\OCc1ccc(C#N)cc1)c1ccc(S(=O)(=O)N(C)C)cc1 | -5.37
Cc1c([N+](=O)[O-])c([N+](=O)[O-])nn1CC(=O)NCc1cccnc1 | 8.28
COc1cc(C(=O)NCCOc2ccccc2)cc(OC)c1OC | 16.3
O=C(O)c1cc2ccccc2c(=O)s1 | 14
CN1CCN(C(=O)c2ccc(C(F)(F)F)cc2)CC1.Cl | 16.8

SMILES | hERG current change (%, negative = inhibition) at 1uM [%]
COc1ccc(Cl)c(Cn2c(NCCCN(C)C)nc3c2c(=O)n(C)c(=O)n3C)c1 | 0.065
c1ccc(CN2CCC3(CC2)Nc2ccccc2CO3)cc1 | -4.96
O=C(c1ccccc1F)N1CCN(c2ccc([N+](=O)[O-])c(N3CCOCC3)c2)CC1 | 25.4
CC(C)OC(=O)/C(C#N)=C/c1cn(Cc2ccccc2)c2ccccc12 | 4.54
COc1cc(CC2C(=O)N(C)C(=O)N(C)C2=O)ccc1OCc1ccccc1 | 10.2
c1ccc2c(c1)Nc1ccccc1S2 | 14.1
CC1CCN(S(=O)(=O)c2ccc(NC(=O)Cn3nnc(-c4ccccc4F)n3)cc2)CC1 | 2.24
CN(C)S(=O)(=O)c1cccc(N=C2SCCN2Cc2ccccc2)c1 | 0.812
Cn1nc(-c2ccc(Cl)cc2)c2cc(C(=O)N3CCN(c4ccccc4)CC3)sc21 | 4.85
COc1ccccc1OCc1ccc(C(=O)N2CCN(C(=O)c3ccco3)CC2)cc1 | 0.783
COc1ccc(CNC(=O)C2COc3ccccc3O2)cc1 (centres unmarked) | 7.77
Nc1nc2nc(-c3cccs3)cc(C(F)(F)F)n2n1 | 17.2
O=C(O)c1ccc(S(=O)(=O)c2ccc3c(c2)C(=O)N(NC(=O)c2ccc(O)cc2)C3=O)cc1 | 9.85
Cc1ccc(OCc2nc(C#N)c(NCCCn3ccnc3)o2)cc1 | -28
CCc1ccc(-c2cn(-c3nc(C)cc(C)n3)c(=N)o2)cc1 | -32.2
COc1ccc(OC)c(NC(=O)CCCSc2ccccc2)c1 | 14
CC(=O)c1cccc(NC(=S)NC(=O)CC(C)C)c1 | 7.25
COC(=O)c1[nH]c2c(c1C)C(=O)CC(c1cc(OC)ccc1OC)C2 (centres unmarked) | 9.46
